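In this assay, cells in 96-well plates receive the compound at five concentrations for 48 hours. Endpoints are linearly interpolated between the surrounding concentrations. GI50 is the concentration that inhibits growth by half. TGI denotes the concentration required for complete inhibition of growth.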

The test system of the assay is NCI-H322M lung. In words: NCI anticancer screen, dose series, 48 h.
Consider `COc1c(B(O)O)cccc1-c1nc2ccc3[nH]ncc3c2c2c1CCCC2`, for which the GI50 is 2.64 µM and the TGI was 13.3 µM.

As to `C=CC(=O)Nc1ccccc1CC(c1c[nH]c2ccccc12)c1c[nH]c2ccccc12`, the TGI is 32.1 µM.

As to `Cc1cc(Cl)nc(N(CCCNc2ccnc3cc(Cl)ccc23)Cc2cccs2)n1`, the GI50 is 1.62 µM and the TGI came out at 9.84 µM.

Turning to `Cc1nn(Cc2ccccc2)cc1C(=O)Nc1sc2c(c1C(N)=O)CCC(=O)C2`, the GI50 was 6.28 µM and the TGI was > 100 µM.

Molecule `CN(C)CCNC(=O)c1cccc2c1Oc1cccc([N+](=O)[O-])c1O2` registered a TGI of 31.3 µM.

For `COC(=O)[C@]12C3=C(O)C(=O)C[C@H]1OC[C@H]2C=CC3`, the TGI was > 100 µM.

For `CCOC(=O)/C(C#N)=C\Sc1ccccc1`, the TGI was > 100 µM.

With `COC1(OC)N=C(N)C2(C#N)C(C)=C3NCN(C)N=C3C12C#N` (stereo unspecified), the TGI was > 100 µM.

On to `C=CCc1oc(C)nc1CCCC`, for which the TGI was > 100 µM.

Turning to `O=C(O)/C(Cl)=C(Cl)/C=N/NC(=O)c1cc2ccccc2cc1O`, the TGI is > 100 µM.

`COC(=O)C(=O)C(C(C)=O)C(=O)NCc1ccccc1` (stereo unspecified): the TGI is > 100 µM.

With `COc1cc2c(NC3CCN(C(C)C)CC3)nc(C3CCCCC3)nc2cc1OCCCN1CCCC1`, the GI50 was 8.52 µM and the TGI is 22 µM.

For `COc1cccc(N2CCN(c3ncnc4cc[nH]c34)CC2)c1`, the GI50 is > 100 µM and the TGI is > 100 µM.

`O=CC(O)C(O)C1OC(=O)c2cc(O)c(O)c(O)c2C2=C(O)C(O)=C3OC(=O)c4c(c(O)c(O)c5c4C3C2C(=O)O5)-c2c(cc(O)c(O)c2O)C(=O)OCC1O` (stereo unspecified): the TGI is > 100 µM.

As for `COc1cccc(/C=C2\SC(=S)N(/C=C3\C(=O)Oc4ccccc4C3=O)C2=O)c1O`, the TGI is > 100 µM.

Turning to `c1ccc2c(c1)SP1Sc3ccccc3P21` (stereo unspecified), the TGI was > 100 µM.

Take `CCOC(=O)N/N=C(\CC)NO`: the TGI is > 100 µM.

Take `C/C(O)=C(\C=NC(=S)c1cccnc1)C(=O)Nc1ccccc1C`: the TGI is > 100 µM.

As for `C#CCOc1cccc(Nc2ncnc3cc(NC(=O)C=C)ccc23)c1`, the GI50 was 23.6 µM and the TGI is > 100 µM.

In the case of `O=C(NNc1ccccc1)c1ccc(Cl)c(Cl)c1`, the TGI is > 94.5 µM.

Consider `CCCCCN(CCCCC)C(=O)[C@H](CCC(=O)O)NC(=O)c1cc2ccccc2[nH]1`, for which the TGI was > 100 µM.

As for `Cn1cc(C2=C(c3cc[nH]c3)C(=O)NC2=O)c2ccccc21`, the GI50 is > 25 µM and the TGI is > 25 µM.

Consider `CCn1cc(C(=O)N/N=C/c2cccs2)c(=O)c2cc(F)c(N3CCNC(C)C3)c(F)c21` (stereo unspecified), for which the GI50 is 1.59 µM and the TGI worked out at 2.93 µM.

For the molecule `CN(C)CC1C(=O)O[C@H]2[C@H]1CC/C(COC(=O)NCc1ccc(Cn3c(=O)sn(CCCI)c3=O)cc1)=C\CC[C@@]1(C)O[C@@H]21` (stereo partly specified), the GI50 was 6.75 µM and the TGI worked out at 13.2 µM.

On to `O=c1cc(-c2ccccc2)oc2cc(OCCCCCN3CCOCC3)cc(O)c12`, for which the GI50 is > 100 µM and the TGI was > 100 µM.

For `CCCCSc1nc(N)c2cn[nH]c2n1`, the GI50 is 4.29 µM and the TGI is > 69.6 µM.

In turn, `N#Cc1c(N)nc(SCc2ccccc2)c(C#N)c1-c1ccc(O)cc1` gave a TGI of 25.6 µM.

Consider `O=C(CSC(c1ccccc1)c1ccccc1)N/N=C/c1ccccc1Cl`, for which the GI50 is 25.8 µM and the TGI is > 92.4 µM.

Take `COc1cc(NCCC(=O)O)c2ncccc2c1`: the TGI was > 100 µM.

Regarding `O=c1[nH]c2ccc(Cl)cc2o1`, the TGI is > 100 µM.

Take `O=C(OCc1ccccc1)c1ccc(NCc2cc(O)ccc2O)cc1`: the TGI came out at 23.2 µM.

Consider `CCCCCCCCCCCCCCCCCCOCC(C[N+]1(C)CCC(O)CC1)OCC` (stereo unspecified), for which the TGI is 23.4 µM.

For `Cc1ccc2c(c1)C=CC1(O2)N(c2ccccc2)C(=S)OC1(C)C` (stereo unspecified), the TGI was > 100 µM.

Regarding `Cc1ccc(C)c(NC(=O)C(=O)C2C(=O)N(c3ccccc3)N=C2N)c1` (stereo unspecified), the TGI was > 100 µM.

Turning to `CC[C@@H]([C@H](O)c1ccccc1Cl)[N+](=O)[O-]`, the TGI was > 100 µM.

`Cc1ccc(NC(=S)C#N)c(C)c1`: the TGI was > 100 µM.

On to `c1ccc2c(c1)SCCc1cn[nH]c1-2`, for which the TGI is > 100 µM.

As for `O=c1[nH]nc(-c2ccccc2)n1-c1cccc([N+](=O)[O-])c1`, the TGI was > 100 µM.

In the case of `Cc1ccc(-c2c3c(nn2-c2ccc(S(=O)(=O)NC(=O)NC4CCCCC4)cc2)-c2ccccc2C3)cc1`, the GI50 was 4.24 µM and the TGI was determined as 18.6 µM.

Turning to `CSc1ccc(NC(=O)Nc2cc(C)ccn2)cc1`, the TGI was > 100 µM.

In the case of `O=C(Cn1c2c(c3ccccc31)CCCC2)N1CCCCC1`, the TGI was > 100 µM.

As to `Cc1c(NC(=O)CSC(=S)N(C)C)c(=O)n(-c2ccccc2)n1C`, the TGI was > 100 µM.

In the case of `COc1ccc(-c2c(-c3ccccc3)c(C)nc3[nH]c(=S)[nH]c(=S)c23)cc1OC`, the TGI turned out to be 44.2 µM.

As to `CCN(CC)/[N+]([O-])=N/OCOC`, the TGI is > 100 µM.

Turning to `c1csc(-c2ccc(CNc3c4ccccc4nc4ccccc34)cc2)c1`, the GI50 was 1.58 µM and the TGI was 2.97 µM.

For the molecule `COc1ccc(/C=C\c2cc(OC)c(OC)c(OC)c2)cc1OC(=O)CC(N)C(=O)O` (stereo unspecified), the GI50 is 0.0034 µM and the TGI was > 100 µM.

With `CCOC(=O)c1c(N2CCOCC2)ncn(-c2cccc(Cl)c2)c1=O`, the TGI is > 100 µM.

On to `COC(=O)[C@@H](NC(=O)[C@H](N)Cc1ccc(N(CCCl)CCCl)cc1)C(C)C`, for which the TGI is > 100 µM.

With `CC(=O)O[C@@H]1C2=C(C)C3(CC3)[C@@](C)(O)C(=O)C2=C[C@@]1(C)CO`, the GI50 is 1.87 µM and the TGI is 7 µM.

Take `CN1C(=O)[C@H](c2c[nH]c3ccccc23)[C@H](c2c[nH]c3ccccc23)C1=O`: the TGI was > 100 µM.

Take `COc1ccc(NC(=O)c2oc3cc(O)ccc3c(=O)c2C)c([N+](=O)[O-])c1`: the TGI is > 100 µM.

For `C=C1C(=O)O[C@@H]2CC(CO)=C([C@@H](C)CCCO)[C@@H](OC(=O)/C(C)=C\C)[C@H]12`, the TGI is > 83.2 µM.

`O=C(Cn1c(C(=O)/C=C/c2ccc(Cl)cc2)nc2ccccc21)c1ccc(Cl)cc1` yielded a TGI of 61.8 µM.

Regarding `O=C1c2ccn(CCCNC(CO)(CO)CO)c2C(=O)c2c1c(O)c1ccccc1c2O`, the GI50 is 6.51 µM and the TGI was 25.3 µM.

Regarding `S=c1[nH]n2c(COc3ccc(Cl)cc3)nnc2s1`, the TGI was > 100 µM.

Take `O=C(NCCCl)Nc1ccccc1`: the TGI is > 100 µM.

For the molecule `CC(C)(C)[Si](C)(C)OCCc1ccccc1C1CC2(S(=O)(=O)c3ccccc3)ON1CC2S(=O)(=O)c1ccccc1` (stereo unspecified), the TGI is > 100 µM.

Take `CCC[n+]1cc2cc3c(cc2c2c1-c1cc4c(cc1C2)OCO4)OCO3` (tested in a mixture with another compound): the GI50 is 1.56 µM and the TGI is 26.1 µM.

With `NNC(=O)c1cc([N+](=O)[O-])ccc1NC(=O)C12CC3CC(CC(C3)C1)C2`, the TGI worked out at 46.4 µM.

`N#C/C(=C\c1ccc([N+](=O)[O-])o1)c1n[nH]c(Cc2ccccc2)n1` had a TGI of 29.3 µM.

With `Cc1ccc(C)n2c1nc1cc3ccccc3cc12`, the TGI is > 100 µM.

Take `CN(C)c1cc2c(Nc3ccc4c(cnn4Cc4ccccc4)c3)ncnc2cn1`: the GI50 was 0.523 µM and the TGI is > 20.6 µM.
